# In the antibiotic and cytotoxicity screens of Wong et al. (2023):
# Some of the results follow.
# Legend:
# HSkMC = human skeletal muscle cells; assay: cytotoxicity call (relative viability < 0.9); conditions: 10 µM
# HepG2 = assay: cytotoxicity call (relative viability < 0.9); conditions: 10 µM
# S. aureus RN4220 = assay: growth inhibition call (relative growth <= 0.2); conditions: 50 µM
Compound,cytotoxicity call (HSkMC),cytotoxicity call (HepG2),growth inhibition call (S. aureus RN4220)
CC(C)Cc1ccc(C(C)C(=O)O)cc1 (configuration not stated),inactive,inactive,inactive
CN1CCN(C(=O)C[C@@H]2C[C@@H]3c4cc(NC(=O)c5ccc6c(c5)OCO6)ccc4O[C@@H]3[C@@H](CO)O2)CC1,inactive,inactive,inactive
C[C@@H]1CCCCO[C@H](CN(C)Cc2ccncc2)[C@H](C)CN([C@H](C)CO)C(=O)c2cc(NC(=O)Nc3ccc(C(F)(F)F)cc3)ccc2O1,inactive,active,inactive
Cc1cc(C(=O)Nc2cccc3c2O[C@H](CN(C)C(=O)Nc2c(C)noc2C)[C@H](C)CN([C@@H](C)CO)C3=O)n(C)n1,inactive,inactive,inactive
COc1ccc(NC(=O)N(C)C[C@H]2OCCCC[C@@H](C)Oc3ccc(NC(=O)Nc4ccc(C(F)(F)F)cc4)cc3C(=O)N([C@H](C)CO)C[C@H]2C)cc1,inactive,active,inactive
C[C@@H]1CN([C@@H](C)CO)C(=O)Cc2cc(NS(=O)(=O)c3ccccc3)ccc2O[C@@H]1CN(C)Cc1ccc2c(c1)OCO2,inactive,inactive,inactive
C[C@@H]1CN([C@H](C)CO)C(=O)c2cccc(NC(=O)C3CCOCC3)c2O[C@@H]1CN(C)Cc1ccc(Oc2ccccc2)cc1,inactive,inactive,inactive
COc1ccc(S(=O)(=O)N(C)C[C@H]2OCc3cnnn3CCCC(=O)N([C@@H](C)CO)C[C@@H]2C)cc1,inactive,inactive,inactive
O=C(C[C@H]1CC[C@@H]2[C@H](COC[C@H](O)CN2C(=O)c2ccc3c(c2)OCO3)O1)NCCN1CCCC1,inactive,inactive,inactive
C[C@H](CO)N1C[C@H](C)[C@H](CN(C)C(=O)Nc2cccc3ccccc23)Oc2c(NC(=O)Nc3ccccc3)cccc2C1=O,inactive,inactive,inactive
C[C@@H]1CN([C@@H](C)CO)C(=O)c2cc(NC(=O)Cc3cn(C)c4ccccc34)ccc2O[C@@H]1CN(C)Cc1ccc(Oc2ccccc2)cc1,inactive,inactive,inactive
C[C@H](CO)N1C[C@H](C)[C@H](CN(C)C(=O)Nc2ccc(C(F)(F)F)cc2)Oc2ccc(NC(=O)Nc3ccc(C(F)(F)F)cc3)cc2C1=O,inactive,inactive,inactive
Cc1ccc(S(=O)(=O)N(C)C[C@H]2OCCCC[C@@H](C)Oc3ccc(NC(=O)Nc4ccc5c(c4)OCO5)cc3C(=O)N([C@@H](C)CO)C[C@H]2C)cc1,inactive,inactive,inactive
COCC#Cc1ccc2c(c1)O[C@H](CN(C)S(=O)(=O)c1ccc(C)cc1)[C@H](C)CN([C@@H](C)CO)S2(=O)=O,inactive,inactive,inactive
C[C@@H]1CN([C@H](C)CO)C(=O)c2cc(NC(=O)Cn3cnnn3)ccc2O[C@@H]1CN(C)Cc1ccc(C(=O)Nc2ccccc2N)cc1,inactive,inactive,inactive
COc1ccc(NC(=O)N(C)C[C@H]2OCCCC[C@H](C)Oc3ccc(NS(=O)(=O)c4cccs4)cc3C(=O)N([C@@H](C)CO)C[C@H]2C)cc1,inactive,inactive,inactive
COc1ccc(S(=O)(=O)N(C)C[C@H]2OCCCC[C@@H](C)Oc3ccc(NC(=O)CCC(F)(F)F)cc3C(=O)N([C@H](C)CO)C[C@H]2C)cc1,inactive,inactive,inactive
COCCNC(=O)C[C@H]1C[C@@H]2c3cc(NC(=O)Nc4ccc(C(F)(F)F)cc4)ccc3O[C@@H]2[C@@H](CO)O1,inactive,inactive,inactive
COc1ccc(cc1)CN1C[C@]2(CCN(CC2)S(=O)(=O)c2cn(cn2)C)c2c([nH]c3cc(ccc23)OC)[C@@H]1CO,inactive,inactive,inactive
Cc1ccc(S(=O)(=O)Nc2ccc3c(c2)CC(=O)N([C@H](C)CO)C[C@H](C)[C@H](CN(C)Cc2ccc(C(F)(F)F)cc2)O3)cc1,active,active,inactive
CC(C)N1CC[C@@H](CN(C)Cc2ccc(Oc3ccccc3)cc2)Oc2c(NC(=O)c3ccncc3)cccc2C1=O,inactive,inactive,inactive
CC(C)c1ccc(N2C=Nc3ccc(C(C)C)cc3C2)cc1,inactive,inactive,active
NCc1cc(Oc2cccc(C(=O)N3C[C@@H](O)[C@H](F)C3)c2)nc(C(F)(F)F)c1,inactive,inactive,inactive
C[C@H](CO)N1C[C@H](C)[C@@H](CN(C)Cc2ccccc2)Oc2ccc(NC(=O)CCN3CCOCC3)cc2CC1=O,inactive,inactive,inactive
